According to publication PMC4196162:
These are yes or no findings as the source states them, for the method shown. In cells and extracts the contact can be indirect. Some results given as binding are weak or reduced against the parent protein; the word gives no strength.

What was measured:
[1] = biological target: T1, Pygo2 (human (endogenous in MCF7 and T47D)) (UniProt Q9BRQ0); assay: co-IP; endogenous proteins, MCF7 whole cell lysates, Protein A sepharose; mouse and rabbit IgG as negative controls; Western blot
T1 sequence: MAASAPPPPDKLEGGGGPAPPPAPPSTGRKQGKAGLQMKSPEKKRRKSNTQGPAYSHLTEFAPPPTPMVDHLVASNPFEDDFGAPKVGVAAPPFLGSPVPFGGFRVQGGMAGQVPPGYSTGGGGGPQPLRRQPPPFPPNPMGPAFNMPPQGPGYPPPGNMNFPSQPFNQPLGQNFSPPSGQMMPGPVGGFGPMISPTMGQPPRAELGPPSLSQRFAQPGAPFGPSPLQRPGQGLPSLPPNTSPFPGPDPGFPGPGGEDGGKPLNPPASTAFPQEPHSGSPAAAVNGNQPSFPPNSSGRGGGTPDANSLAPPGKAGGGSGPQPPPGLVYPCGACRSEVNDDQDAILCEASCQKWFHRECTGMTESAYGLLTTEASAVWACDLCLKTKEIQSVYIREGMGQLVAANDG

[2] = biological target: T1, Pygo2 (human (endogenous in MCF7 and T47D)); assay: co-IP; endogenous proteins, T47D whole cell lysates, Protein A sepharose; Western blot
[3] = biological target: ß-catenin (mouse) (mouse (endogenous in primary K19-BCL9-2 mouse tumor cells)) (UniProt Q02248); assay: co-IP; primary K19-BCL9-2 mouse mammary tumor cells, whole cell lysates, Protein A sepharose; Western blot
[4] = biological target: T2, ß-catenin (mouse) (mouse (endogenous in primary K19-BCL9-2 mouse tumor cells)), Q02248; assay: as above; details: remark: other sources report otherwise
T2 chain: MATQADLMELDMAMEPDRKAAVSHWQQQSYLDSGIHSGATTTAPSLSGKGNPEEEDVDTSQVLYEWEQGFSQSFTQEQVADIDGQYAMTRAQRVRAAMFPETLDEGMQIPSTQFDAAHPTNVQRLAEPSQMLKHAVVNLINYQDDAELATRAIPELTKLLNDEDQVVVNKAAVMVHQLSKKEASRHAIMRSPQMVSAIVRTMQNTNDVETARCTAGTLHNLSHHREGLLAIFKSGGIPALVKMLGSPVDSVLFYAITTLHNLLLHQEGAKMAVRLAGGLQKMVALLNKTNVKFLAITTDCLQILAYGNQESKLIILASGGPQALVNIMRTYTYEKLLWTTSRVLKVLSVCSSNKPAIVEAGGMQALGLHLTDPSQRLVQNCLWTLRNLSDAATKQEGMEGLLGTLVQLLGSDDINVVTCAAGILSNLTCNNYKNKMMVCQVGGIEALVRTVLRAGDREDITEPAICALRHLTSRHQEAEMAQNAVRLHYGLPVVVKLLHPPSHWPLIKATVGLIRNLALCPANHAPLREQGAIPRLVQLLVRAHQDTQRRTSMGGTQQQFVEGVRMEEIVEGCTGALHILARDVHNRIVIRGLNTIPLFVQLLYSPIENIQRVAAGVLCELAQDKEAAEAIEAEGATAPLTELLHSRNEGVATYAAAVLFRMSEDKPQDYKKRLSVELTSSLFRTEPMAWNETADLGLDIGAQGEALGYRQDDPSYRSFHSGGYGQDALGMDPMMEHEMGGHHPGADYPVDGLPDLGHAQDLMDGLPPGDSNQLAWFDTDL

B1: BCL9-2 (BCL9L, B-Cell Lymphoma 9-like) (protein, UniProt Q86UU0 1-1499)
chain: MRILANKTRLPHPRRREAPGSPPLSPRGHCPPAPAKPMHPENKLTNHGKTGNGGAQSQHQNVNQGPTCNVGSKGVGAGNHGAKANQISPSNSSLKNPQAGVPPFSSLKGKVKRDRSVSVDSGEQREAGTPSLDSEAKEVAPRSKRRCVLERKQPYSGDEWCSGPDSEEDDKPIGATHNCNVADPAMAAPQLGPGQTTQLPLSESSVPGAPHGPPPGLRPDAPGGGGGGGGVPGKPPSQFVYVFTTHLANTAAEAVLQGRADSILAYHQQNVPRAKLDQAPKVPPTPEPLPLSTPSAGTPQSQPPPLPPPPPPAPGSAPPALPPEGPPEDSSQDLAPNSVGAASTGGGTGGTHPNTPTATTANNPLPPGGDPSSAPGPALLGEAAAPGNGQRSLVGSEGLSKEQLEHRERSLQTLRDIERLLLRSGETEPFLKGPPGGAGEGGPPAQAPPPPQQPPTAPPSGLKKYEEPLQSMISQTQSLGGPPLEHEVPGHPPGGDMGQQMNMMIQRLGQDSLTPEQVAWRKLQEEYYEEKRRKEEQIGLHGSRPLQDMMGMGGMMVRGPPPPYHSKPGDQWPPGMGAQLRGPMDVQDPMQLRGGPPFPGPRFPGNQIQRVPGFGGMQSMPMEVPMNAMQRPVRPGMGWTEDLPPMGGPSNFAQNTMPYPGGQGEAERFMTPRVREELLRHQLLEKRSMGMQRPLGMAGSGMGQSMEMERMMQAHRQMDPAMFPGQMAGGEGLAGTPMGMEFGGGRGLLSPPMGQSGLREVDPPMGPGNLNMNMNVNMNMNMNLNVQMTPQQQMLMSQKMRGPGDLMGPQGLSPEEMARVRAQNSSGVMGGPQKMLMPSQFPNQGQQGFSGGQGPYQAMSQDMGNTQDMFSPDQSSMPMSNVGTTRLSHMPLPPASNPPGTVHSAPNRGLGRRPSDLTISINQMGSPGMGHLKSPTLSQVHSPLVTSPSANLKSPQTPSQMVPLPSANPPGPLKSPQVLGSSLSVRSPTGSPSRLKSPSMAVPSPGWVASPKTAMPSPGVSQNKQPPLNMNSSTTLSNMEQGTLPPSGPRSSSSAPPANPPSGLMNPSLPFTSSPDPTPSQNPLSLMMTQMSKYAMPSSTPLYHNAIKTIATSDDELLPDRPLLPPPPPPQGSGPGISNSQPSQMHLNSAAAQSPMGMNLPGQQPLSHEPPPAMLPSPTPLGSNIPLHPNAQGTGGPPQNSMMMAPGGPDSLNAPCGPVPSSSQMMPFPPRLQQPHGAMAPTGGGGGGPGLQQHYPSGMALPPEDLPNQPPGPMPPQQHLMGKAMAGRMGDAYPPGVLPGVASVLNDPELSEVIRPTPTGIPEFDLSRIIPSEKPSSTLQYFPKSENQPPKAQPPNLHLMNLQNMMAEQTPSRPPNLPGQQGVQRGLNMSMCHPGQMSLLGRTGVPPQQGMVPHGLHQGVMSPPQGLMTQQNFMLMKQRGVGGEVYSQPPHMLSPQGSLMGPPPQQNLMVSHPLRQRSVSLDSQMGYLPAPGGMANLPF
binding [1]: binds | binding [2]: binds

B2: BCL9-2 in primary K19-BCL9-2 mouse mammary tumor cells (protein, UniProt Q67FY2 1-1494)
chain: MRILANKTRLPHPRRREAPGSPPLSPRGHCPPAPAKPMHPENKLTNHGKTGNGGAQSQHQNVNQGPTCNLGSKGVGAGSHGAKANQISPSNSSLKNPQAGVSPFSSLKGKVKRERSVSVDSGEQREAGTPSLDSEAKEVAPRSKRRCVLERKQPYSGDEWCSGPDSEEDDKPIAAAHNCNVADPAMVTPQLGPGQTAQLPLSESSAPGPQHGPQPGLRPDVPGGGGGGVPGKPPSQFVYVFTTHLANTAAEAVLQGRAESILAYHQQNVPRAKLDQAPKVPPTPEPLPLNTPSAGTPQSQPPPLPPPPPAPGSAPPALPPEGPPEDTSQDLAPNSVGAASTGGGTGGTHPNTPTAATANNPLPPGGDPGSAPGSALLGEATPTGNGQRNLVGSEGLSKEQLEHRERSLQTLRDIERLLLRSGETEPFLKGPPGGAGEGGPPAQAPSAAQPPPSAPPGGLKKYEEPLQSMISQTQSLGGPPLEHEVPGHPQGGDMGQQMNMMMQRLGQDSLTPEQVAWRKLQEEYYEEKRRKEEQIGLHGGRPLQDMVGMGGMMGRGPPPPYHSKPGDQWPPGMGAQLRGPMDVQDPMQLRPGPPFPGPRFPGNQMQRVPGFGGMQSMPMEVPMNAMQRPVRPGMAWNEDLPPIGGPSNFAQNAVPYPGGQGEAERFMTPRVREELLRHQLLEKRSMGMQRPLGMAGSGMGQSMEMERMIQAHRQMDPAMFPGQMTGGDGLAGTPMGIEFGGGRGLLSPPMGQSGLREVDPPMGPGNLNMNMNVNMNMNMNLNVQMTPQQQMLMSQKMRGPGDMMGPQGLSPEEMARVRAQNSSGMMGGPQKMLMPSQFPNQGQQGFSGGQGPYQAMPQDMGNTPDMFSPDQSSVPMGTVGTARLSHMPLPPASNPPGSVHLASNRGLGRRPSDLTISINQMGSPGMGHLKSPTLSQVHSPLVTSPSANLKSPQTPSQMVPLPSANPPGPLKSPQVLSSSLGVRSPTGSPSRLKSPSMAVPSPGWVASPKTAMPSPGVSQNKQPPLSINSSSTLGNVEQGALPPSAPRNSSSAPPANPSSGLMNPSLPFTSSPDPTPSQNPLSLMMSQMSKYAMPSSTPLYHNAIKTIATSDDELLPDRPLLPPPPPPQGSGPGISNNQPNQMHMNPAAAQSPMGMNLPGQQPLSHEPPPTMLPSPTPLGSNIPLHPNAQGTGGSSQNSMMMAPGGPDSLNAPCGPVPSSSQMMSFPPRLQQPHGAMAPTGAGGPGLQQHYPSGMALPPEDLPTQPPGPIPPQQHLMGKGMTGRMGDAYPPGVLPGVASVLNDPELSEVIRPTPTGIPEFDLSRIIPSEKPSSTLQYFPKSENQPPKAQPPNLHLMNLQNMMAEQTPSRPPNLPGQQGVQRGLSMSMCHPGQMSLLGRTGVPPQQGMVPHGLHQGVMSPPQGLMTQQNFMLMKQRGVGGEVYTQPPHMLSPQGSLMGPPPQQNLMVSHPLRQRSVSLDSQMGYLPTPGSMANLPF
binding [3]: no binding

B3: estrogen receptor alpha (ER) (mouse), P19785 1-599 (protein)
chain: MTMTLHTKASGMALLHQIQGNELEPLNRPQLKMPMERALGEVYVDNSKPTVFNYPEGAAYEFNAAAAAAAAASAPVYGQSGIAYGPGSEAAAFSANSLGAFPQLNSVSPSPLMLLHPPPQLSPFLHPHGQQVPYYLENEPSAYAVRDTGPPAFYRSNSDNRRQNGRERLSSSNEKGNMIMESAKETRYCAVCNDYASGYHYGVWSCEGCKAFFKRSIQGHNDYMCPATNQCTIDKNRRKSCQACRLRKCYEVGMMKGGIRKDRRGGRMLKHKRQRDDLEGRNEMGASGDMRAANLWPSPLVIKHTKKNSPALSLTADQMVSALLDAEPPMIYSEYDPSRPFSEASMMGLLTNLADRELVHMINWAKRVPGFGDLNLHDQVHLLECAWLEILMIGLVWRSMEHPGKLLFAPNLLLDRNQGKCVEGMVEIFDMLLATSSRFRMMNLQGEEFVCLKSIILLNSGVYTFLSSTLKSLEEKDHIHRVLDKITDTLIHLMAKAGLTLQQQHRRLAQLLLILSHIRHMSNKGMEHLYNMKCKNVVPLYDLLLEMLDAHRLHAPASRMGVPPEEPSQTQLATTSSTSAHSLQTYYIPPEAEGFPNTI
binding [4]: no binding
